Reference: patent publication US11155580B2, “Modified proteins and methods of use thereof” (YALE UNIVERSITY, priority 2013, dated 2021)
Entries after “also recorded” stand apart in the source; their conditions may differ. Part of at least one peptide drawing is inferred or uncertain, most often the ends. Some compounds share one wording; it may come from a single statement. Where a SMILES comes first, the peptide text is derived from it. The star is where a group is joined. X2 = C[C@@H]1C[C@H]2[C@@H]3CCC4=CC(=O)C=C[C@]4(C)[C@@]3(F)[C@@H](O)C[C@]2(C)[C@@]1(O)C(=O)CSCCC(=O)*

Key:
[1] = test system: HeLa cells transfected with GR-GFP; test: GR-GFP translocation assay (cytosolic access of Dex-labeled molecules); format: cell-based; conditions: for translocation ratio (TR): HeLa cells expressing GR-GFP
Experimental: HeLa cells transfected with pK7-GR-GFP were plated in Matrical plates as described above. To label nuclei, the media was replaced with HKR buffer containing 300 nM Hoescht and the cells incubated for 30 min at 37° C.
Cells were then analyzed as described above.
HeLa cells transfected with pK7-GR-GFP for 24-36 hr were plated (10^4/well in 200 μL) the day prior to experiments in 96 well glass bottom plates (Matrical). The media was replaced with HKR buffer containing 300 nM Hoescht and the cells incubated for 30 min at 37° C. […] The cells were incubated for a further 30 min at 37° C. before epifluorescence imaging using a Zeiss Axiovert 200M microscope fitted with a mRM digital camera, a 63×1.3NA PlanApo objective and an EXFO-Excite illumination source.
Uptake was allowed to proceed for an additional 30 min at 37° C. before analysis by epifluorescence images as described elsewhere herein.
The image analysis algorithm used by CellProfiler is customizable and contained within a ‘Pipeline’ that describes a series of image manipulation and evaluation steps, such as reading the image, adjusting the intensity, and identifying objects. Each step has several options. […] Using the image of Hoescht fluorescence and Otsu's method of automatic thresholding, nuclei were identified and segmented using 3 class thresholding. The middle class was assigned to background. Closely approximated objects were separated using ‘Laplacian of Gaussian’ modeling, and touching nuclei were divided using the ‘shape’ option. Nuclear regions were expanded by 2 μm to generate an enlarged region. The nuclear region was subtracted from enlarged region to generate a ring surrounding the nucleus (surround). […] The ratio of the median intensities of the nuclear and surrounding region of the GFP or mCherry (as appropriate) image were collected for every cell examined. Those cells falling below a threshold of intensity (10% of the maximum intensity of the image) were discarded as ‘untransfected’. Typically, 20-60 transfected cells from 15-30 images were examined for each experimental condition.

[2] = test system: HeLa cells transfected with pGR-mCherry and Rab5-GFP or Rab5Q79L-GFP; test: GR-mCherry translocation in cells expressing Rab5-GFP or Rab5Q79L-GFP; format: cell-based
Experimental: Cotransfected cells expressing Rab-GFP fusions and pGR-mCherry were identified via their characteristic pattern of green and red fluorescence. The translocation ratio was determined using median values of mCherry fluorescence within the nucleus and surrounding region using CellProfiler.
HeLa cells transfected for 24-36 hr with pGR-mCherry and either Rab5-GFP or Rab5Q79L-GFP were plated (10^4/well in […]) the day prior to experiments in 96 well glass bottom plates (Matrical). The cells were washed with HKR buffer and the nuclei labeled using Hoescht as above. […] The cells were incubated for a further 30 min at 37° C. before imaging. Cells that had been cotransfected with EGFP fusions were identified via their characteristic pattern of green and red fluorescence. To evaluate the extent of GR activation, epifluorescence images were obtained as described above, except the fluorescence of pGR-mCherry was also visualized using Zeiss Filter Set #43 (ex BP 545/25 nm, FT 570, em BP 605/70 nm).
The image analysis algorithm used by CellProfiler is customizable and contained within a ‘Pipeline’ that describes a series of image manipulation and evaluation steps, such as reading the image, adjusting the intensity, and identifying objects. Each step has several options. […] Using the image of Hoescht fluorescence and Otsu's method of automatic thresholding, nuclei were identified and segmented using 3 class thresholding. The middle class was assigned to background. Closely approximated objects were separated using ‘Laplacian of Gaussian’ modeling, and touching nuclei were divided using the ‘shape’ option. Nuclear regions were expanded by 2 μm to generate an enlarged region. The nuclear region was subtracted from enlarged region to generate a ring surrounding the nucleus (surround). The diameter of the surrounding region was chosen to be 2 μm larger than the nucleus, within the range (1-3 μm) used by previously reported high content screens (Ding et al., 1998, J Biol Chem. 273:28897-28905; Peeraniet al., 2007, EMBO J. 26:4744-4755). The ratio of the median intensities of the nuclear and surrounding region of the GFP or mCherry (as appropriate) image were collected for every cell examined. Those cells falling below a threshold of intensity (10% of the maximum intensity of the image) were discarded as ‘untransfected’. Typically, 20-60 transfected cells from 15-30 images were examined for each experimental condition.

[3] = test system: U2OS(GIGI) cells; test: GIGI in lysates, stably transfected U2OS(GIGI) cells; format: cell-based; conditions: lysates; for eGFP expression: 1 μM
From the text: RFUs are expressed±standard deviation (Excel). The maximum induction level is defined as RFUmax. Data were processed using Kaleidagraph and GraphPad Prism software. RFU=([I530]/[I580])−([I′530]/[I′580]) (1)
Y=Ymin+(Ymax−Ymin)/(1+10^logEC50-X) (2)

[4] = test system: Saos-2(GIGT) cells; test: GIGT high-content imaging in stably transfected Saos-2(GIGT) cells; format: cell-based, human; conditions: 1 μM, 30 min
Experimental: Saos2(GIGT) cells were plated onto 384-well plates (2,500 cells/well) in 40 μL of full McCoy's 5A and allowed to adhere overnight. […] Following treatment, cells were fixed with 4% paraformaldehyde for 20 min at room temperature and washed with PBS. […] Translocation ratios were determined using Acapella high content imaging and analysis software, with a script that processed the images in a manner similar to the CellProfiler pipeline described in the Supporting Information. Each data point represents 30-60 images containing over 100 cells.

[5] = test system: Gal4-GR★-VP16; test: GIGI in lysates, transient transfection with Gal4-GR★-VP16; format: cell-based; conditions: transiently transfected HeLa cells, 24 h

SMILES | effect of bafilomycin on TR ([1]; 200 nM bafilomycin pretreatment 1 h, then 1 μM) | increase in TR blocked by wortmannin ([1]; 200 nM wortmannin, 1 μM) [%] | translocation ratio (TR) ([1]; 1 μM, 30 min) | effect of EIPA on TR ([1]; 50 μM EIPA pretreatment 30 min, then 1 μM, 30 min) | effect of dynasore on TR ([1]; 80 μM dynasore pretreatment 30 min, then 1 μM, 30 min) | effect of methyl-β-cyclodextrin (MβCD) on TR ([1]; 5 mM MβCD pretreatment 30 min, then 1 μM, 30 min) | TR (GR-mCherry), Rab5Q79L-GFP expressing cells ([2]; 1 μM, 30 min, Rab5Q79L-GFP) | TR (GR-mCherry), Rab5-GFP expressing cells ([2]; 1 μM, 30 min, wild-type Rab5-GFP) | effect of Rab5Q79L on ability to reach the cytoplasm / TR ([2]; overexpression of Rab5Q79L-GFP) | eGFP expression [3] | translocation ratio (TR), GR★-GFP [4] | eGFP expression [5] | EC50 ([3]; Dex-labeled peptides, 24 h, read-out: EC50 (eGFP expression, GIGI)) [nM]
C[C@@H]1C[C@H]2[C@@H]3CCC4=CC(=O)C=C[C@]4(C)[C@@]3(F)[C@@H](O)C[C@]2(C)[C@@]1(O)C(=O)CSCCC(=O)NCCCC[C@H](N)C(=O)N[C@@H](CCCNC(=N)N)C(=O)N[C@@H](CCCNC(=N)N)C(=O)N[C@@H](CCCNC(=N)N)C(=O)N[C@@H](CCCNC(=N)N)C(=O)N[C@@H](CCCNC(=N)N)C(=O)N[C@@H](CCCNC(=N)N)C(=O)N[C@@H](CCCNC(=N)N)C(=O)N[C@@H](CCCNC(=N)N)C(N)=O [Arg8Dex] | completely blocked the increase in TR | 77 | 2.19±0.13 | reduced the TR | reduced the TR | not decreased | 1.60±0.09 | 1.59±0.11 | no effect | significant eGFP expression | 2.00±0.16 |  | 
CC[C@H](C)[C@H](NC(=O)[C@H](CC(C)C)NC(=O)[C@H](CC(=O)O)NC(=O)[C@H](CCCNC(=N)N)NC(=O)[C@@H](NC(=O)[C@@H]1CCCN1C(=O)[C@H](C)NC(=O)[C@H](CC(=O)O)NC(=O)[C@H](CC(=O)O)NC(=O)CNC(=O)[C@@H]1CCCN1C(=O)[C@H](Cc1ccc(O)cc1)NC(=O)[C@@H](NC(=O)[C@@H]1CCCN1C(=O)[C@H](CCC(N)=O)NC(=O)[C@H](CO)NC(=O)[C@@H]1CCCN1C(=O)CNC(=O)[C@@H](N)CCCCNC(=O)CCSCC(=O)[C@@]1(O)[C@H](C)C[C@H]2[C@@H]3CCC4=CC(=O)C=C[C@]4(C)[C@@]3(F)[C@@H](O)C[C@@]21C)[C@@H](C)O)C(C)C)C(=O)N[C@@H](CCCNC(=N)N)C(=O)N[C@@H](Cc1ccccc1)C(=O)N[C@@H](Cc1ccc(O)cc1)C(=O)N[C@@H](CCCNC(=N)N)C(=O)N[C@@H](CC(=O)O)C(=O)N[C@@H](CC(C)C)C(=O)N[C@@H](CCC(N)=O)C(=O)N[C@@H](CCCNC(=N)N)C(=O)N[C@@H](Cc1ccc(O)cc1)C(=O)N[C@@H](CC(C)C)C(=O)N[C@@H](CCCNC(=N)N)C(=O)N[C@H](C(=O)N[C@H](C(=O)N[C@H](C(=O)N[C@@H](CCCNC(=N)N)C(=O)N[C@@H](Cc1c[nH]cn1)C(=O)N[C@@H](CCCNC(=N)N)C(=O)N[C@@H](Cc1ccc(O)cc1)C(N)=O)[C@@H](C)O)C(C)C)C(C)C [5.2Dex] (H-K(X2)GPSQPTYPGDDAPVRDLIRFYRDLQRYLRVVTRHRY-NH2) |  |  | 1.77±0.11 |  |  |  |  |  |  | significant eGFP expression | Significant GR★-GFP nuclear translocation | did not induce eGFP expression; also recorded: do not induce eGFP expression | 703
